In ChEMBL document CHEMBL1201862, “PubChem BioAssay data set” (2004):
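How tested: cells in 96-well plates exposed to compound for 48 hours at five concentrations. GI50 is the concentration that inhibits growth by half.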 Activity calls are given as the source filed them. No stated cut-off is given here; in the data, active = GI50 up to about 1.1 µM and inactive = higher.

These compounds were tested on NCI-H322M (assay: NCI tumour cell line growth inhibition, 48 h).

Question: `CC1=NN(C(=O)c2ccccc2O)C(=O)/C1=C/c1ccccc1O` was tested. Which GI50 did it give?
Answer: active: 0.805 µM

Question: `Cn1c(=O)c2[nH]c(CCC(=O)O)nc2n(C)c1=O` was tested. Which GI50 did it give?
Answer: inactive: > 100 µM

Question: With `CS(=O)(=O)OCC1CN(S(C)(=O)=O)c2cc(O)ccc21` (centres undefined) as the compound, how does the GI50 read?
Answer: inactive: 6.32 µM

Question: For `C=C(C)CNCC(=C)C.Oc1c(Cl)c(Cl)c(Cl)c(Cl)c1Cl`, which GI50 is on record?
Answer: inactive: 21.6 µM

Question: Which GI50 does the source give for `O=C(O)CNC(=O)c1ccc([As](=O)(O)O)cc1` here?
Answer: inactive: > 100 µM

Question: Which GI50 does the source give for `COc1cccc2nc3ccccc3nc12` here?
Answer: inactive: 40.2 µM

Question: How did the GI50 turn out when `Nc1nc(Cl)cc(NCCCCCCCCCCNc2cc(Cl)nc(N)n2)n1` was run?
Answer: active: 0.0716 µM

Question: How did the GI50 turn out when `CCSCCCSCCSCC` was run?
Answer: inactive: > 100 µM

Question: How did the GI50 turn out when `COc1ccc(Cn2c3ccc([N+](=O)[O-])cc3c(=O)n2Cc2ccccn2)cc1` was run?
Answer: inactive: > 100 µM

Question: With `COCCc1c(C)c(C#N)c2n(C)c3ccccc3n2c1=O` as the compound, how does the GI50 read?
Answer: inactive: > 10 µM

Question: With `CN1C(=O)CN2C(Cl)(Cl)C2(c2ccccc2)c2cc(Cl)ccc21` (centres undefined) as the compound, how does the GI50 read?
Answer: inactive: > 100 µM

Question: Which GI50 does the source give for `O=C1/C(=C/c2ccc(Cl)cc2)CCC1CCN1CCOCC1` (centres undefined) here?
Answer: inactive: > 100 µM

Question: How did the GI50 turn out when `N#CCN1C(=O)c2cccc3cc([N+](=O)[O-])cc(c23)C1=O` was run?
Answer: inactive: 63.2 µM

Question: With `N=C(N)c1ccc(/N=N\c2c(O)ccc3cc4c(/N=N\c5ccc(C(=N)N)cc5)c(O)ccc4cc23)cc1` as the compound, how does the GI50 read?
Answer: inactive: 73.1 µM

Question: With `COc1ccc2c(c1)CC[C@@H]1[C@@H]2CC[C@]2(C)/C(=N/OCCN3CCCC3)CC[C@@H]12` as the compound, how does the GI50 read?
Answer: inactive: 2.66 µM

Question: How did the GI50 turn out when `Cc1cc(C)n(-c2nc(C)c(CCO)c(=O)[nH]2)n1` was run?
Answer: inactive: > 100 µM

Question: With `COc1ccc(NC(=O)CC/C(CC(=O)c2ccco2)=N/Nc2ccc([N+](=O)[O-])cc2[N+](=O)[O-])cc1` as the compound, how does the GI50 read?
Answer: inactive: > 100 µM

Question: Which GI50 does the source give for `CCOC1SC(SC)=NN1C(=O)C(OC(C)=O)C(OC(C)=O)C(OC(C)=O)C(OC(C)=O)C(=O)N1N=C(SC)SC1OCC` (centres undefined) here?
Answer: inactive: > 100 µM

Question: For `CC1(C)C(C#N)=[N+]([O-])C(C)(C)N1O`, which GI50 is on record?
Answer: inactive: 78.7 µM

Question: With `CN1C(=O)C(O)CC1c1ccccc1F` (centres undefined) as the compound, how does the GI50 read?
Answer: inactive: > 100 µM

Question: For `CN(C)/C=N\c1cccc2cnccc12`, which GI50 is on record?
Answer: inactive: > 100 µM

Question: For `CCCCCCC(C)CC(CCCCCC)NCCOC(=O)c1ccc([N+](=O)[O-])cc1` (centres undefined), which GI50 is on record?
Answer: inactive: 12.9 µM

Question: How did the GI50 turn out when `Nc1cc(OCc2ccccc2)c(OCc2ccccc2)cc1C=O` was run?
Answer: inactive: 32.6 µM

Question: `COc1nc2c(nc(N)n2C2OC(CO)C(O)C(O)C2O)c(=O)n1C` (centres undefined) was tested. Which GI50 did it give?
Answer: inactive: > 100 µM

Question: `O=c1cc(-c2ccccc2)nc(-n2[nH]c3c(c2=O)CCCC3)[nH]1` was tested. Which GI50 did it give?
Answer: inactive: 1.32 µM

Question: Which GI50 does the source give for `CC1(O)CC2C(CC1SCCO)C2(C)C` (centres undefined) here?
Answer: inactive: > 100 µM

Question: For `N#CC1=C2Sc3ccccc3N2[C@H](c2ccccc2)[C@H]2COC(=O)[C@@H]12`, which GI50 is on record?
Answer: inactive: > 100 µM

Question: `O=C1/C(=C/c2ccc(O)cc2)CCc2ccccc21` was tested. Which GI50 did it give?
Answer: inactive: 33.8 µM

Question: With `N[C@H]1CCCC[C@@H]1N1C(=O)c2ccccc2C1(O)c1ccc(Cl)cc1` (some centres undefined) as the compound, how does the GI50 read?
Answer: inactive: 14 µM

Question: Which GI50 does the source give for `N=C(N)c1ccc(/C=C/c2ccc(C(=N)N)cc2)cc1` here?
Answer: inactive: > 100 µM

Question: With `CC(C)c1ccc2c(c1)/C(=C1/Nc3ccccc3/C1=N/O)C(=O)N2` as the compound, how does the GI50 read?
Answer: inactive: 6.28 µM

Question: Which GI50 does the source give for `Cc1n[nH]c(=O)n1Nc1ccccc1` here?
Answer: inactive: > 100 µM

Question: Which GI50 does the source give for `Cc1c2c(c(C)c3c1[nH]c1ccccc13)CN(C)CC2` here?
Answer: inactive: 18.7 µM

Question: For `CCN(CC)CCNC(=O)C1COc2ccc(-c3cc(=O)c4ccccc4o3)cc2O1` (centres undefined), which GI50 is on record?
Answer: inactive: 18.6 µM

Question: Which GI50 does the source give for `Cc1c(C2=C(Br)C(=O)N(C)C2=O)c(=O)n(C)c(=O)n1C` here?
Answer: inactive: > 100 µM

Question: How did the GI50 turn out when `CCCCCCCCCCCCCC(=O)CBr` was run?
Answer: inactive: 17.5 µM

Question: How did the GI50 turn out when `CN(C)Cc1cc(C(C)(C)C)cc(C2CCCCC2)c1O` was run?
Answer: inactive: 14.7 µM

Question: With `Cn1c(=O)c2ccccc2c2ccccc21` as the compound, how does the GI50 read?
Answer: inactive: 67.9 µM

Question: With `CCOC(=O)c1ccc(-c2cccs2)n1C` as the compound, how does the GI50 read?
Answer: inactive: > 100 µM

Question: For `CCN(CC)c1c(-c2c(N(CC)CC)c(OC(C)=O)c3sccn3c2=O)c(=O)n2ccsc2c1OC(C)=O`, which GI50 is on record?
Answer: inactive: > 100 µM

Question: Which GI50 does the source give for `Cc1ccc2c(c1)CNc1ccc(C)cc1CN2` here?
Answer: inactive: > 100 µM

Question: `O=c1[nH]nc(-c2ccccc2)n1O` was tested. Which GI50 did it give?
Answer: inactive: > 100 µM

Question: For `O=[N+]([O-])c1ccc(Cl)cc1/C=N/C12CC3CC(CC(C3)C1)C2`, which GI50 is on record?
Answer: inactive: 67.5 µM

Question: `CC(C)C1OCC(CO)CO1` (centres undefined) was tested. Which GI50 did it give?
Answer: inactive: > 100 µM

Question: Which GI50 does the source give for `Cc1ccc(S(=O)(=O)NCCCN(CCCNS(=O)(=O)c2ccc(C)cc2)S(=O)(=O)c2ccc(C)cc2)cc1` here?
Answer: inactive: > 100 µM

Question: With `CCc1c(O)c(O)c(C(C)=O)c2c(O)c(-c3c(C)cc4c(CC)c(O)c(O)c(C(C)=O)c4c3O)c(C)cc12` as the compound, how does the GI50 read?
Answer: inactive: 6.03 µM

Question: With `Cc1cc(N(CCC#N)CCC#N)ccc1C(=N/NC(=O)c1cc(Cl)ccc1O)/N=N/c1cccc([N+](=O)[O-])c1` as the compound, how does the GI50 read?
Answer: inactive: 11.3 µM

Question: `O=CNc1ccccc1OCCOc1ccccc1NC=O` was tested. Which GI50 did it give?
Answer: inactive: > 100 µM

Question: Which GI50 does the source give for `O=c1c2ccccc2nc(-c2ccccc2)n1O` here?
Answer: inactive: > 100 µM

Question: Which GI50 does the source give for `CCN(CC)CC(C(=O)Nc1c(C)cccc1C)/C(C)=N\NC(=O)C[N+](C)(C)C` (centres undefined) here?
Answer: inactive: > 100 µM

Question: For `CN(C)c1ccc(/C=c2\sc3nc4ccccc4n3c2=O)cc1`, which GI50 is on record?
Answer: inactive: > 100 µM

Question: Which GI50 does the source give for `CC(C)(C)OC(=O)N1NC(c2ccccc2)CC1c1ccccc1` (centres undefined) here?
Answer: inactive: 26.5 µM

Question: With `CCOC(=O)NC(Nc1cccc(F)c1)(C(F)(F)F)C(F)(F)F` as the compound, how does the GI50 read?
Answer: inactive: > 100 µM

Question: For `COc1ccc(/C(Br)=C2\OC(=O)c3ccccc32)cc1`, which GI50 is on record?
Answer: inactive: > 10 µM

Question: For `CCOC(=O)C(C)c1cc(C2(C)OCCO2)c(C)o1` (centres undefined), which GI50 is on record?
Answer: inactive: > 100 µM

Question: With `COP(=O)(Cc1ccc(/C=C/C#N)o1)OC` as the compound, how does the GI50 read?
Answer: inactive: > 100 µM

Question: For `N/N=C(\Nc1ccccc1)SCc1ccccc1`, which GI50 is on record?
Answer: inactive: > 100 µM

Question: `O=C1C2c3[nH]c4ccccc4c3[C@@H]3CCCCC3C2C(=O)N1c1ccccc1` (some centres undefined) was tested. Which GI50 did it give?
Answer: inactive: 31.8 µM

Question: Which GI50 does the source give for `CN(C)C(=S)Nc1nnc(NC23CC4CC(CC(C4)C2)C3)s1.[O-][Cl+3]([O-])([O-])O` here?
Answer: inactive: 33 µM

Question: For `Nc1ccccc1/N=C/c1cc2cc([N+](=O)[O-])ccc2s1`, which GI50 is on record?
Answer: inactive: 18.5 µM

Question: `Cc1nnc(SCc2nc(C#N)c(C#N)nc2CSc2nnc(C)s2)s1` was tested. Which GI50 did it give?
Answer: inactive: 56.1 µM

Question: Which GI50 does the source give for `C#CCn1c(=O)c(I)cn(/C(=C\C(=O)OCC)C(=O)OCC)c1=O` here?
Answer: inactive: 16.7 µM

Question: With `Nc1nc2[nH]cnc2c(=O)[nH]1` as the compound, how does the GI50 read?
Answer: inactive: > 100 µM

Question: With `CCOC(=O)Nc1ccc(S(=O)(=O)NCCCl)cc1.CCOC(=O)Nc1ccc(S(=O)(=O)NCCCl)cc1.O=C(O)c1ccc(/N=N/Cl)cc1O` as the compound, how does the GI50 read?
Answer: inactive: > 100 µM

Question: `CC(=O)OCC1OC(OC2CC3C(C)(C)C(=O)CC[C@]3(C)C3CC[C@]45C[C@]4(CCC5[C@@H](C)CC(O)C(O)C(C)(C)O)[C@]23C)C(O)C(O)C1O` (some centres undefined) was tested. Which GI50 did it give?
Answer: inactive: 16.1 µM

Question: How did the GI50 turn out when `CN(C)CCNc1ccc2nnn3c4ccc(Cl)cc4c(=O)c1c23` was run?
Answer: inactive: 3.1 µM

Question: With `CC(=O)O[C@H]1C(N(C)C(=O)c2ccccc2)CC[C@]2(C)C3CC[C@@]4(C)C(CC(O)[C@@H]4C(C)N(C)C)[C@@H]3CCC12` (some centres undefined) as the compound, how does the GI50 read?
Answer: inactive: > 100 µM

Question: `COc1ccc2nc3ccccc3c(NCCCCN(CCCl)CCCl)c2c1` was tested. Which GI50 did it give?
Answer: active: 0.353 µM

Question: For `CC(c1ccccc1)n1c2ccccc2c2c(N)ncnc21` (centres undefined), which GI50 is on record?
Answer: inactive: 18.7 µM
